Values marked as one replicate rest on one cluster of the flow cell; about a third of the high ones do not repeat.
Tested on: ATP
Assay: switch fluorescence ratio, 500 uM ATP over buffer (Cy3 cluster intensity, sum of 5 cycles each) (fold (ratio)); higher = stronger signal-on switching upon ATP binding; sequences stand for … in TCGTCGGCAGCGTCAGATGTGTATAAGAGACAGTTTTTTTTTTTTTTTTTTTTTTTTT…TC
Details: aptamer strand: ATP DNA aptamer (quencher-CACCTGGGGGAGTATTGCGGAGGAAGG + anchor), 100 nM annealed; ATP concentration: 500 uM; one replicate
In short: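 The fluorescence ratio divides summed target-cycle Cy3 intensity by summed buffer-cycle Cy3 intensity for each cluster and is averaged per switch-domain sequence. Cy3-labelled switching-strand clusters on a modified Illumina MiSeq flow-cell were annealed to 100 nM quencher-labelled ATP aptamer, then imaged in selection buffer and again after 15 min with 500 uM ATP at 22 °C. Five such cycles were run, with NaOH stripping and re-annealing between them, and clusters outside 100-1000 RFU were excluded.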
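Note: ATP exposure 15 min at 22 °C before imaging.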

| Sequence | switch fluorescence ratio |
| --- | --- |
| CAGCGTTGTG | 1.01 |
| CAGCTATTTT | 0.999 |
| CAGCTCCGGA | 1.04 |
| CAGCTCTGGT | 0.991 |
| CAGCTGAACT | 0.998 |
| CAGCTGACTG | 1 |
| CAGCTGGCGG | 1.01 |
| CAGCTTCGTA | 0.967 |
| CAGGAAACGT | 1.14 |
| CAGGAACGGA | 1 |
| CAGGAAGAGG | 0.956 |
| CAGGAATTGA | 1 |
| CAGGACATA | 1.03 |
| CAGGACCGC | 1.2 |
| CAGGACGGAC | 1.02 |
| CAGGAGATGT | 1 |
| CAGGAGCTCT | 1.08 |
| CAGGAGGTC | 1.01 |
| CAGGAGTTGG | 0.981 |
| CAGGATAGA | 0.997 |
| CAGGATAGCA | 1.04 |
| CAGGATATCA | 1.02 |
| CAGGATCACA | 0.987 |
| CAGGATGACT | 1.03 |
| CAGGATTTA | 0.985 |

| Sequence | switch fluorescence ratio |
| --- | --- |
| CAGGCATGTT | 0.995 |
| CAGGCCATAC | 3.13 |
| CAGGCCTGTA | 1 |
| CAGGCGCATC | 2.38 |
| CAGGCGGCCA | 1.01 |
| CAGGCGTGAA | 1.04 |
| CAGGCTAACT | 1.04 |
| CAGGCTAGTC | 1 |
| CAGGCTGATG | 1.01 |
| CAGGCTTCGT | 1.02 |
| CAGGGAGAAC | 1.02 |
| CAGGGAGTTT | 1.01 |
| CAGGGATTGT | 0.992 |
| CAGGGCGGCC | 0.953 |
| CAGGGTAGAC | 1 |
| CAGGTCAAGA | 0.983 |
| CAGGTCATTG | 1.04 |
| CAGGTCCCGG | 0.997 |
| CAGGTCTACA | 1.07 |
| CAGGTGACCA | 1.11 |
| CAGGTGAGAT | 1.52 |
| CAGGTGCAT | 2.04 |
| CAGGTGCGGT | 1.46 |
| CAGGTTAAAA | 1.01 |
| CAGGTTAGAG | 1.02 |

| Sequence | switch fluorescence ratio |
| --- | --- |
| CAGGTTCGCC | 1.03 |
| CAGGTTCTGA | 0.964 |
| CAGGTTCTTG | 1.02 |
| CAGGTTTA | 1.03 |
| CAGTAAAGTA | 1.05 |
| CAGTAACGGC | 0.999 |
| CAGTAAGCTT | 1.01 |
| CAGTACATGA | 1.02 |
| CAGTAGATGC | 1.13 |
| CAGTAGGACA | 0.994 |
| CAGTAGGTGA | 1.07 |
| CAGTAGTCA | 1.46 |
| CAGTAGTGG | 1.01 |
| CAGTATGGAA | 0.936 |
| CAGTCAAAC | 1.21 |
| CAGTCAGGA | 0.971 |
| CAGTCATCTC | 0.964 |
| CAGTCCAACA | 1.01 |
| CAGTCTAGGC | 1.05 |
| CAGTCTCACA | 1.04 |
| CAGTCTTCGG | 0.971 |
| CAGTGAAGAG | 0.999 |
| CAGTGACTCT | 0.98 |
| CAGTGAGAGC | 0.95 |
| CAGTGATCGT | 0.969 |

| Sequence | switch fluorescence ratio |
| --- | --- |
| CAGTGATGAA | 0.999 |
| CAGTGCGAGG | 0.994 |
| CAGTGCTAGG | 0.983 |
| CAGTGGGCGC | 0.904 |
| CAGTGTCAAT | 1.02 |
| CAGTGTCTTA | 0.961 |
| CAGTTAATTA | 1.01 |
| CAGTTACTAT | 1.04 |
| CAGTTCATCT | 1.01 |
| CAGTTCCCAG | 1.02 |
| CAGTTCGCCA | 0.989 |
| CAGTTCGCG | 0.997 |
| CAGTTGGGCG | 0.908 |
| CAGTTGTCTT | 0.967 |
| CAGTTTATGG | 0.998 |
| CAGTTTGGAC | 0.997 |
| CAGTTTTGAC | 0.99 |
| CATAAAGTAA | 1.04 |
| CATAAAGTCC | 1.01 |
| CATAACACTT | 1.09 |
| CATAAGGATG | 0.929 |
| CATAAGTTCG | 1.02 |
| CATAAGTTGG | 0.979 |
| CATAATGTAG | 0.99 |
| CATACAGCCC | 1.08 |
